Sequences with one replicate were seen in a single cluster, so their values are uncertain.

Results on 67 sequences are retold here after the supplement of paper PMC10126150.

The test system of the data set is ATP. Kind of data set: switch fluorescence ratio, 500 uM ATP over buffer (Cy3 cluster intensity, sum of 5 cycles each) (fold (ratio)); higher = stronger signal-on switching upon ATP binding; sequences stand for … in TCGTCGGCAGCGTCAGATGTGTATAAGAGACAGTTTTTTTTTTTTTTTTTTTTTTTTT…TC. The following applies: aptamer strand: ATP DNA aptamer (quencher-CACCTGGGGGAGTATTGCGGAGGAAGG + anchor), 100 nM annealed; ATP concentration: 500 uM; one replicate. The essentials: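 Values give the fluorescence ratio for each switch-domain sequence, averaged from per-cluster ratios of summed target-cycle to summed buffer-cycle Cy3 intensity. The Cy3-labelled switching-strand clusters sat on a modified Illumina MiSeq flow-cell, were annealed to 100 nM quencher-labelled ATP aptamer, and were imaged in selection buffer, then after 15 min with 500 uM ATP at 22 °C. Five cycles ran with NaOH stripping and re-annealing between them, and clusters outside 100-1000 RFU were excluded.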
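Note: ATP exposure 15 min at 22 °C before imaging.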

Turning to TGCGGAGGTG, the switch fluorescence ratio amounted to 1.06.
With TCGTGCGTAG the figure was 0.997; with ATTATTTTCA, 1.04.
Under GAAATTGTAG stands 0.974.
For the sequence TTAATGAGAC, the switch fluorescence ratio worked out at 1.01.
For GTGAGTGTCG, the switch fluorescence ratio was 1.03.
With TAGAGCTCAC the figure was 1.02; with GAGCTACGT, 1.01; with GGACCATTAA, 0.979.
On to GGGTCAGTG, for which the switch fluorescence ratio was 0.986.
With GATAAAGTCA the figure was 0.941; with GAATTCAAGC, 1.03.
With TGAGCGCTGG the figure was 1.02; with ATGTCGC, 0.949; with ATATTTCTAG, 1.04.
For GCCCCATTAG, the switch fluorescence ratio was 1.07.
Under TCCATGGAAT stands 0.973.
Under TTTCCCGGCG stands 1.35; under TACGTCTCTT, 0.999.
In the case of CAGAATGATC, the switch fluorescence ratio was 1.04.
Under GCTATATACT stands 1.21; under CATTAGTGAT, 1.03.
With TAACAAAAGA the figure was 0.965.
Under AAAGGTGCAT stands 2.38; under TAATCTAAAC, 0.998.
As for CAAAGATACT, the switch fluorescence ratio is 1.05.
With CATGAATCTG the figure was 1.07; with GTCGAAGGAG, 1.03.
Take CGGTCATAGC: the switch fluorescence ratio turned out to be 1.05.
Turning to GCCTATAAAG, the switch fluorescence ratio worked out at 0.999.
Under AGGATGGTG stands 0.955.
Under GATAGTATGG stands 0.99.
As for CGTGGACCA, the switch fluorescence ratio was 1.06.
For GATGATTGAT, the switch fluorescence ratio worked out at 1.03.
Under GTTCAATCAA stands 0.986; under ATATGCCGCG, 0.965; under GTGAGTTTTC, 1.01.
With TACCAGTGGA the figure was 0.982.
Take CATTCGTCCG: the switch fluorescence ratio stood at 1.34.
With GGAGCGGCAT the figure was 1.12.
Take CCCAGTAACG: the switch fluorescence ratio is 1.02.
Regarding GGGTCAC, the switch fluorescence ratio stood at 0.974.
CGTCGTCTAT: the switch fluorescence ratio is 1.03.
Take ACTAGCCCAG: the switch fluorescence ratio is 1.77.
As to GATGCATCGT, the switch fluorescence ratio amounted to 1.02.
TTCATAATCA: the switch fluorescence ratio is 0.978.
Under CTAGGTCCGG stands 1; under ATGTGCGCTG, 0.997.
For GAGTAACCCA, the switch fluorescence ratio was found to be 1.01.
For the sequence CGCACCTGGA, the switch fluorescence ratio was 1.06.
For CACCAAGGGG, the switch fluorescence ratio was 1.73.
With TGAGACAGGT the figure was 0.932; with AGATTATGAG, 1.04.
Turning to GCCGACCAGA, the switch fluorescence ratio worked out at 1.07.
Take TACTCATGAC: the switch fluorescence ratio was 1.08.
With CGCAGGCCCG the figure was 1.11; with TTAGTTAAGA, 0.982; with TCGTTCTCTG, 0.967.
In the case of CGGGCTAGAA, the switch fluorescence ratio is 0.944.
Regarding GGCAATTGAG, the switch fluorescence ratio was found to be 1.06.
With GCTACTATGT the figure was 0.986; with AAGGCTCCCA, 1.01; with AGGCTACTAC, 1.11.
With TATGGGGACG, the switch fluorescence ratio is 0.957.
Consider GGTTACACTC, for which the switch fluorescence ratio is 1.05.
With GTTAGGATAA the figure was 1.01; with GAACTGCAAC, 1.48.
